This is an account of results in the supplement of paper PMC12217912.

Some of the results follow. The full chains were built here from the parent and the listed change. Inactive controls read about 0.05.

The chains are these.
B1: TEV protease; numbered along this chain (parent)
chain: MGESLFKGPRDYNPISSSICHLTNESDGHTTSLYGIGFGPFIITNKHLFRRNNGTLVVQSLHGVFKVKDTTTLQQHLVDGRDMIIIRMPKDFPPFPQKLKFREPQREERICLVTTNFQTKSMSSMVSDTSCTFPSGDGIFWKHWIQTKDGQCGSPLVSTRDGFIVGIHSASNFTNTNNYFTSVPKNFMELLTNQEAQQWVSGWRLNADSVLWGGHKVFMVKPEEPFQPVKEATQL

In the test the parent is B1. The experiment in a line: raw area under fraction-flipped curve 0-4 h after induction (AUC4h, not background-subtracted), DNA-recorder readout of cleavage of the substrate (dimensionless); higher = more cleavage of the substrate by the protease variant. Conditions: temperature: 34 °C; time window: 0-4 h after rhamnose induction. As to the method: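 In vivo DNA recorder in E. coli TOP10(DE3) ΔrhaA at 34 °C. Each TEVp single-site mutant (parent TEVp 0) is paired with a single-site variant of the 7-mer TEVs (canonical ENLYFQ|S). The substrate sits between flexible linkers in a Bxb1-sfGFP-TEVs-SsrA fusion, so cleavage stabilises Bxb1 and speeds flipping of a recombination array, read by NGS. The value is the raw area under the fraction-flipped curve over 0-4 h after rhamnose induction (AUC4h), with ≥20 reads per time point. It is not background-subtracted; inactive controls average about 0.047.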
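Also: Bxb1 expression induced with 0.2% (w/v) L-rhamnose at OD600 near 0.5, cultures sampled hourly, flipped fraction per protease–substrate barcode pair counted by paired-end Illumina sequencing.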

Consider MGESLFKGPRDYNPISSSICHLTNESDGHTTSLYGIGFGPFIITNKHLFRRNNGTLVVQSLHGVFKVKDTTTLQQHLVDGRDMIIIRMPKDFPPFPQKLKFREPQREERICLVTTNFQTKSMSSMYSDTSCTFPSGDGIFWKHWIQTKDGQCGSPLVSTRDGFIVGIHSASNFTNTNNYFTSVPKNFMELLTNQEAQQWVSGWRLNADSVLWGGHKVFMVKPEEPFQPVKEATQL [V126Y], for which the “area with substrate ENLCFQS” value turned out to be 0.0744, the “area with substrate ENLDFQS” value came out at 0.0591, the “area with substrate ENLEFQS” value worked out at 0.0786 and the “area with substrate ENLFFQS” value came to 0.0848. The “area with substrate ENLHFQS” value came out at 0.0738, the “area with substrate ENLIFQS” value stood at 0.0834, the “area with substrate ENLKFQS” value stood at 0.0904 and the “area with substrate ENLMFQS” value is 0.0668. For the same variant, the “area with substrate ENLNFQS” value amounted to 0.0748, the “area with substrate ENLPFQS” value is 0.0453, the “area with substrate ENLQFQS” value worked out at 0.0793 and the “area with substrate ENLSFQS” value is 0.0668. In addition, the “area with substrate ENLVFQS” value came out at 0.078.
On to MGESLFKGPRDYNPISSSICHLTNESDGHTTSLYGIGFGPFIITNKHLFRRVNGTLVVQSLHGVFKVKDTTTLQQHLVDGRDMIIIRMPKDFPPFPQKLKFREPQREERICLVTTNFQTKSMSSMVSDTSCTFPSGDGIFWKHWIQTKDGQCGSPLVSTRDGFIVGIHSASNFTNTNNYFTSVPKNFMELLTNQEAQQWVSGWRLNADSVLWGGHKVFMVKPEEPFQPVKEATQL [N52V], for which the “area with substrate ENLCFQS” value is 0.0546, the “area with substrate ENLDFQS” value worked out at 0.0664, the “area with substrate ENLEFQS” value was determined as 0.0957 and the “area with substrate ENLFFQS” value worked out at 0.0707. Moreover, the “area with substrate ENLHFQS” value worked out at 0.075, the “area with substrate ENLIFQS” value was 0.0602, the “area with substrate ENLKFQS” value is 0.0556 and the “area with substrate ENLLFQS” value amounted to 0.0631. In addition, the “area with substrate ENLNFQS” value came out at 0.0633, the “area with substrate ENLPFQS” value came to 0.0562, the “area with substrate ENLQFQS” value was 0.0571 and the “area with substrate ENLRFQS” value was 0.0643. Also, the “area with substrate ENLSFQS” value turned out to be 0.0532, the “area with substrate ENLVFQS” value worked out at 0.0517 and the “area with substrate ENLWFQS” value came to 0.0576.
As to MGESLFKGPRDYNPISSSICHLTNESDGHTTSLYGIGFGPFIITNKHLFRRNNGTLVVQSLHGVFKVKDTTTLQQHLVDGRDMIIIRMPKDFPPFPQKLKFHEPQREERICLVTTNFQTKSMSSMVSDTSCTFPSGDGIFWKHWIQTKDGQCGSPLVSTRDGFIVGIHSASNFTNTNNYFTSVPKNFMELLTNQEAQQWVSGWRLNADSVLWGGHKVFMVKPEEPFQPVKEATQL [R102H], the “area with substrate ENLCFQS” value amounted to 0.0644, the “area with substrate ENLDFQS” value was 0.0562, the “area with substrate ENLEFQS” value was determined as 0.0652 and the “area with substrate ENLFFQS” value was 0.0584. The “area with substrate ENLHFQS” value stood at 0.0456, the “area with substrate ENLIFQS” value is 0.0742, the “area with substrate ENLKFQS” value amounted to 0.0781 and the “area with substrate ENLNFQS” value worked out at 0.0473. The “area with substrate ENLPFQS” value came out at 0.0482, the “area with substrate ENLQFQS” value amounted to 0.0741, the “area with substrate ENLSFQS” value is 0.0532 and the “area with substrate ENLVFQS” value stood at 0.0529. The “area with substrate ENLWFQS” value is 0.0556.
Turning to MGESLFKGPRDYNPISSSICHLTNESDGHTTSLYGIGFGPFIITNKHLFRRNNGTLVVQSLHGVFKVKDTTTLQQHLVDGRDMIIIRMPKDFPPFPQKLKFREPQREERICLVTTNFQTKSMSSMVSDTSCTFPSGDGIGWKHWIQTKDGQCGSPLVSTRDGFIVGIHSASNFTNTNNYFTSVPKNFMELLTNQEAQQWVSGWRLNADSVLWGGHKVFMVKPEEPFQPVKEATQL [F140G], the “area with substrate ENLCFQS” value was determined as 0.054, the “area with substrate ENLDFQS” value stood at 0.0871, the “area with substrate ENLEFQS” value was found to be 0.102 and the “area with substrate ENLFFQS” value was 0.0832. Moreover, the “area with substrate ENLGFQS” value amounted to 0.0647, the “area with substrate ENLHFQS” value was found to be 0.065, the “area with substrate ENLIFQS” value was determined as 0.0431 and the “area with substrate ENLLFQS” value worked out at 0.0592. Further, the “area with substrate ENLNFQS” value was 0.0592, the “area with substrate ENLPFQS” value amounted to 0.0478, the “area with substrate ENLQFQS” value stood at 0.0618 and the “area with substrate ENLRFQS” value is 0.0553. The “area with substrate ENLSFQS” value was found to be 0.061.
For the variant MGESLFKGPRDYNPISSSICHLTNESDGHTTSLYGIGFGPFIITNKHLFRRNNGTLVVQSLHGVFKVKDTTTLQQHLVDGRDMIIIRMPKDFPPFPQKLKFREPQREERICLVTTNFQTKSMSSMVSDTSCTFPSGDGIFWIHWIQTKDGQCGSPLVSTRDGFIVGIHSASNFTNTNNYFTSVPKNFMELLTNQEAQQWVSGWRLNADSVLWGGHKVFMVKPEEPFQPVKEATQL [K142I], the “area with substrate ENLCFQS” value amounted to 0.066, the “area with substrate ENLDFQS” value turned out to be 0.0643, the “area with substrate ENLEFQS” value was found to be 0.0867 and the “area with substrate ENLFFQS” value came out at 0.0708. The “area with substrate ENLHFQS” value stood at 0.0644, the “area with substrate ENLIFQS” value is 0.0752, the “area with substrate ENLKFQS” value turned out to be 0.0773 and the “area with substrate ENLLFQS” value turned out to be 0.104. Moreover, the “area with substrate ENLMFQS” value is 0.0672, the “area with substrate ENLNFQS” value stood at 0.0658, the “area with substrate ENLPFQS” value is 0.0312 and the “area with substrate ENLQFQS” value was 0.0506. Besides, the “area with substrate ENLRFQS” value was 0.0908, the “area with substrate ENLSFQS” value was determined as 0.0585, the “area with substrate ENLTFQS” value amounted to 0.0507 and the “area with substrate ENLVFQS” value was determined as 0.0638. Besides, the “area with substrate ENLWFQS” value was 0.0589.
As to MGESLFKGPRDYNPISSSICHLTNESDGHTTSLYGIGFGPFIITNKHLFRRNNGTLVVQSLHGVFKVKDTTTLQQHLVDGRDMIIIRMPKDFPPFPQKLKFREPQAEERICLVTTNFQTKSMSSMVSDTSCTFPSGDGIFWKHWIQTKDGQCGSPLVSTRDGFIVGIHSASNFTNTNNYFTSVPKNFMELLTNQEAQQWVSGWRLNADSVLWGGHKVFMVKPEEPFQPVKEATQL [R106A], the “area with substrate ENLCFQS” value is 0.0749, the “area with substrate ENLDFQS” value came out at 0.0628, the “area with substrate ENLEFQS” value was found to be 0.0787 and the “area with substrate ENLFFQS” value came out at 0.0967. In addition, the “area with substrate ENLGFQS” value stood at 0.0635, the “area with substrate ENLHFQS” value worked out at 0.0811, the “area with substrate ENLKFQS” value is 0.0754 and the “area with substrate ENLNFQS” value came out at 0.0429. The “area with substrate ENLPFQS” value was 0.0643, the “area with substrate ENLQFQS” value came out at 0.0805, the “area with substrate ENLSFQS” value was 0.0908 and the “area with substrate ENLWFQS” value was determined as 0.0728.
On to MGESLFKGPRDYNPISSSICHLTNESDGHTTSLYGIGFGPFIITNKHLMRRNNGTLVVQSLHGVFKVKDTTTLQQHLVDGRDMIIIRMPKDFPPFPQKLKFREPQREERICLVTTNFQTKSMSSMVSDTSCTFPSGDGIFWKHWIQTKDGQCGSPLVSTRDGFIVGIHSASNFTNTNNYFTSVPKNFMELLTNQEAQQWVSGWRLNADSVLWGGHKVFMVKPEEPFQPVKEATQL [F49M], for which the “area with substrate ENLCFQS” value stood at 0.0598, the “area with substrate ENLDFQS” value came to 0.0603, the “area with substrate ENLEFQS” value was 0.0608 and the “area with substrate ENLFFQS” value turned out to be 0.0683. The “area with substrate ENLGFQS” value was determined as 0.0525, the “area with substrate ENLHFQS” value is 0.0673, the “area with substrate ENLIFQS” value turned out to be 0.0578 and the “area with substrate ENLKFQS” value was determined as 0.0686. Further, the “area with substrate ENLLFQS” value stood at 0.0542, the “area with substrate ENLMFQS” value amounted to 0.0627, the “area with substrate ENLNFQS” value worked out at 0.0569 and the “area with substrate ENLPFQS” value was 0.0618. Also, the “area with substrate ENLQFQS” value was 0.0611, the “area with substrate ENLTFQS” value amounted to 0.0576, the “area with substrate ENLVFQS” value was found to be 0.0742 and the “area with substrate ENLWFQS” value is 0.055.
Turning to MGESLFKGPRDYNPISSSICHLTNESDGHTTSLYGIGFGPFIITNKHLFRRNNGTLVVQSLHGVFKVKDTTTLQQHLVDGRDMIIIRMPKDFPPFPQKLKFREPQREERICLVTTNFQTKSMSRMVSDTSCTFPSGDGIFWKHWIQTKDGQCGSPLVSTRDGFIVGIHSASNFTNTNNYFTSVPKNFMELLTNQEAQQWVSGWRLNADSVLWGGHKVFMVKPEEPFQPVKEATQL [S124R], the “area with substrate ENLCFQS” value turned out to be 0.0826, the “area with substrate ENLDFQS” value came to 0.0687, the “area with substrate ENLEFQS” value came to 0.0698 and the “area with substrate ENLFFQS” value was determined as 0.0951. The “area with substrate ENLGFQS” value is 0.0589, the “area with substrate ENLHFQS” value was determined as 0.0657, the “area with substrate ENLIFQS” value is 0.101 and the “area with substrate ENLKFQS” value worked out at 0.0825. In addition, the “area with substrate ENLNFQS” value came to 0.0633, the “area with substrate ENLRFQS” value worked out at 0.0844 and the “area with substrate ENLSFQS” value was 0.0671.
Regarding MGESLFKGPRDYNPISSSICHLTNESDGHTTSLYGIGFGPFIITNKHLFRRNNGTLVVQSLHGVFKVKDTTTLQQHHVDGRDMIIIRMPKDFPPFPQKLKFREPQREERICLVTTNFQTKSMSSMVSDTSCTFPSGDGIFWKHWIQTKDGQCGSPLVSTRDGFIVGIHSASNFTNTNNYFTSVPKNFMELLTNQEAQQWVSGWRLNADSVLWGGHKVFMVKPEEPFQPVKEATQL [L77H], the “area with substrate ENLCFQS” value came to 0.0579, the “area with substrate ENLDFQS” value was 0.0622, the “area with substrate ENLEFQS” value amounted to 0.0592 and the “area with substrate ENLFFQS” value was 0.0684. Moreover, the “area with substrate ENLGFQS” value is 0.0701, the “area with substrate ENLHFQS” value was determined as 0.0668, the “area with substrate ENLIFQS” value is 0.0665 and the “area with substrate ENLKFQS” value stood at 0.0699. Moreover, the “area with substrate ENLLFQS” value is 0.0654, the “area with substrate ENLMFQS” value is 0.0722, the “area with substrate ENLNFQS” value amounted to 0.0656 and the “area with substrate ENLPFQS” value was 0.0592. Further, the “area with substrate ENLQFQS” value came to 0.0643, the “area with substrate ENLRFQS” value was determined as 0.067, the “area with substrate ENLSFQS” value was determined as 0.0528 and the “area with substrate ENLTFQS” value amounted to 0.0665. Further, the “area with substrate ENLWFQS” value worked out at 0.036.
